Measured values reported in the supplement of paper PMC3334620.
Over roughly 33,000 sequences, “E-score (-0.5 to 0.5)” has its median near -0.056; the highest 2% begin near 0.38. Some of the results follow.

target: Stb4 (UniProt P50104); assay: PBM E-score (8-mer binding enrichment) (E-score (-0.5 to 0.5)); higher = stronger / more preferred TF binding; most listed sequences are background and not binding sites; settings: protein concentration: 200 nM; construct: GST-DNA-binding domain
Procedure, shortened: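 Detection of bound protein used fluorescent anti-GST, with scans normalised by masliner. The proteins were GST-tagged yeast transcription factors applied at about 100-200 nM to universal all-10-mer Agilent arrays made double-stranded by primer extension. Each ungapped eight-base word, pooled with its reverse complement, was scored with an E-score from the Universal PBM Analysis Suite.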

Sequence | PBM E-score
AAGTGACT | -0.0801
CCTGGTGA | -0.225
CAATCTCC | 0.0935
AACCCGAC | 0.324
CAGCGTTC | -0.00962
AATGTATA | 0.0432
GCATGGAA | 0.0186
ACTACTCT | -0.216
GACCGAGC | 0.291
ACTGGACA | -0.1
ACGTGACA | -0.218
AGAAACCT | 0.0967
ACACCGAA | 0.265
GTCCGTCA | 0.0792
AGCGTCTA | -0.135
CTTCAAAA | -0.184
CAGTCAGC | -0.0974
AAAATGGA | 0.0859
GAATCGAA | -0.11
ACTCAATA | -0.0696
CATGTACG | 0.00195
GCAATAAC | -0.0319
GACCGACA | 0.165
GCTTTATA | -0.0172
AATAGGAC | -0.167

Sequence | PBM E-score
AATCGTAC | -0.0162
ATAGTATA | 0.0732
AACACTAT | -0.0377
AGTGTCAC | -0.085
AGAGTAAG | -0.226
CCGTGCAA | 0.0384
GGATGACC | 0.0622
TACAACTA | -0.0303
AGCAGCAC | -0.196
ATGAAACA | -0.00932
CTGTCGTC | -0.179
AGGGGTCG | -0.202
CTGCTGAA | -0.191
GACCAGCC | 0.156
CCCTATGA | -0.161
CCATTGCG | -0.0704
TCATTGGA | -0.163
CTCATTAA | -0.107
TGAGACAA | -0.0128
AAGGCACT | -0.143
ATGCGGTG | -0.279
CCTTGAAA | -0.127
GAACCATA | 0.106
ATAAGCAA | -0.14
TGAGTACA | -0.352

Sequence | PBM E-score
CTCCCTGC | -0.304
ATTGCACG | 0.0832
ACACCTCG | 0.168
GAGGACGA | 0.0428
TGATGAAA | -0.176
GCAGGAAA | -0.174
CGAAGAAC | 0.0729
AATTAGTA | -0.0746
AGTCTCTA | -0.307
CCGGTAGC | 0.164
CTCAGTTA | -0.092
CTCTCTCC | -0.0466
CGGTCGAG | 0.088
GTGCGAGA | -0.156
ATTCAGAG | 0.0253
CCGAACTA | 0.395
CACGAGAC | -0.145
GTCGGTCA | 0.0354
CGGGTCAC | 0.19
AAACGGTT | -0.0389
ACGCCTAG | -0.206
AGAATCGA | -0.0393
CGTATCAG | 0.0327
AAAGTCCG | 0.206
AGACTGAA | -0.22

Sequence | PBM E-score
CCCGTTCG | 0.261
ACCTCCAT | -0.0501
AACTTGGT | -0.159
CCCGGACA | 0.264
ACACGCGA | -0.101
ATCCAGCC | 0.0534
CTTATGTA | -0.114
TAACGTAA | -0.132
TAGATTCA | -0.0317
CTTTTAAC | -0.164
GTGCGTCA | -0.101
CAACTAGC | 0.0199
GGTACGCA | -0.0106
GTGCCGTA | 0.125
CGGACAGA | 0.129
ACCGTTAG | -0.159
AGCCAATG | -0.196
AATATGAC | -0.0101
CCTATTAA | -0.0295
CAGATAAC | 0.0308
ACTCGTGG | -0.22
CTCTCAGA | -0.238
CCCTGCCG | 0.165
GAGGAGGA | -0.152
AATTATTG | -0.039

Sequence | PBM E-score
ACCGGTAA | 0.183
GTGTCGTA | -0.0741
CCACGGGG | 0.00664
CCGCCAAC | 0.233
GTGAGAAA | 0.0503
AAAGAGTT | -0.153
AAACAACC | 0.00653
GTTAGAAA | 0.1
CCCGCATA | 0.195
GCCGTACA | 0.0973
AGAGAGGA | -0.157
ATTTCTGC | 0.00147
CTTAAGCA | -0.0708
CGTCAGCC | 0.0877
ATAATACA | 0.0246
CGAACAAC | 0.0944
ATAGTCCG | 0.101
GATGGGCC | 0.0871
GATGAACC | 0.14
TAAGAGAA | -0.344
GATGGCTA | 0.1
TGAACACA | -0.03
AGTCATAG | -0.233
CCCTTTCG | 0.124
AACTTCAC | -0.137

Sequence | PBM E-score
AGTTCTAG | -0.0358
AGGCTAGC | -0.217
ATGTAACG | 0.085
CAGCCAAG | -0.308
AACTGGGG | -0.0271
ATACTACC | -0.0201
AAAGACAC | 0.121
AAACTAGA | -0.167
CTCTACTC | -0.106
GTTAGAGA | -0.2
AATTCCCA | -0.299
AGAACTTA | 0.0665
ATAGGTAC | -0.0409
CTTTCGAA | -0.204
AGACCATG | -0.164
ACCTAGGG | -0.158
ATATCACA | -0.136
AAACGTAA | -0.046
CAAGGGAC | -0.332
CACGGGTA | 0.333
AGATGGTA | 0.107
AGCGTCTG | -0.164
TATTCAGA | -0.164
ATCGTTCC | 0.234
ACCCTTAG | -0.25

Sequence | PBM E-score
CTGCTAAA | -0.0654
CGTGGCGC | -0.216
AGTTACAT | -0.102
GCGGGACA | 0.163
TACCAATA | -0.261
AAAAAGCA | -0.185
GAGTTCAC | -0.0366
AAAGGATG | -0.155
CCACATAG | 0.0856
AAAGTCAC | 0.0146
CCCCCTAA | -0.318
TCACTACA | 0.00111
CAGTAAGG | -0.225
CTTAGCGC | 0.0274
AGAACGAC | -0.0248
AAACGAAT | -0.0774
GGACCGCC | -0.0138
ACCGTGCT | 0.0286
AGTATTGG | -0.195
CAGGTATG | -0.0124
CGCTCGAC | -0.255
TCGGATCA | 0.46
CTCCTGAC | -0.221
AGAATTAT | 0.0197
ACAGCTGA | -0.149

Sequence | PBM E-score
ACGTCGGA | 0.389
CGCTCCCG | 0.286
CTGTGCCA | -0.0441
CATGGACG | -0.0825
CGCGCCGC | 0.168
ACCAACCC | -0.13
ACTGCTCC | 0.0514
AGTCGGGC | 0.157
GGAGCTGA | -0.0874
CTTCCTCC | 0.00764
AGGTTCAG | -0.0723
CTTAAAAA | -0.232
AACGCGTG | -0.167
CTAAGCTA | -0.0905
AAGTCACC | -0.0111
AAGGGTAA | -0.0859
CCAGAGGA | -0.178
AAATCAGG | -0.307
ACACGAGG | -0.0575
CCGAACGC | 0.415
GATGGTCA | 0.0045
TGCAAGAA | -0.0278
CCTCCGAG | 0.4
GGATCGGA | 0.402
GAATGGAA | 0.0587

Sequence | PBM E-score
CTGAACAA | -0.0548
CTTAGATC | -0.216
CGAAATCG | 0.242
ACGGCTAG | 0.12
GGTGACTA | -0.00959
AACCCATT | -0.00875
CCTGATGC | 0.0382
ACTGTATG | 0.0265
CGGCCAGA | 0.172
CGTGTAGA | -0.0786
CACGTCAC | -0.147
GGGATCCA | 0.14
ATATAACG | -0.0292
CGTACGGC | -0.0501
CAATATAA | 0.151
TGCGAGCA | -0.165
ATTGAACA | 0.0813
ATACCCAG | -0.255
CCCGAGAA | 0.44
